# Measured values reported in the supplement of paper PMC8728848.
# The other results are listed elsewhere or left out.
# B1: Microvirin-2 (Microcystis aeruginosa) (protein)
# chain: MPNFSHTCSSINYDPDSTILSAECQARDGEWLPTELRLSDHIGNIDGELQFGDQNFQETCQDCHLEFGDGEQSVWLVCTCQTMDGEWKSTQILLDSQIDNNDSQLEIGGSMPNFSHTCSSINYDPDSTILSAECQARDGEWLPTELRLSDHIGNIDGELQFGDQNFQETCQDCHLEFGDGEQSVWLVCTCQTMDGEWKSTQILLDSQIDNNDSQLEIG
# Columns and labels:
# Test in all cases: glycan array binding signal (z-score within array); higher = stronger binding
# Settings in all cases: glycan notation: IUPAC condensed, linker removed
# [1] = biological target: Fuc(a1-2)Gal(b1-4)GlcNAc(b1-3)Gal(b1-4)GlcNAc(b1-2)Man(a1-3)[Fuc(a1-2)Gal(b1-4)GlcNAc(b1-3)Gal(b1-4)GlcNAc(b1-2)Man(a1-6)]Man(b1-4)GlcNAc(b1-4)GlcNAc
# Method in brief: (§1)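 Glycan array binding is given as a within-array Z-score, which can be read as non-binding when negative. The arrays, 3228 of them, came from the Consortium for Functional Glycomics database and were retained only where the protein sequence was available. Z-scores were averaged across arrays of the same protein sequence at different concentrations or buffers and across linkers.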
# [2] = biological target: Fuc(a1-2)Gal(b1-4)GlcNAc(b1-3)Gal(b1-4)GlcNAc(b1-3)Gal(b1-4)GlcNAc
# Method in brief: as §1
# [3] = biological target: Fuc(a1-2)Gal(b1-4)GlcNAc(b1-3)GalNAc
# Method in brief: as §1
# [4] = biological target: Fuc(a1-2)Gal(b1-4)GlcNAc(b1-3)[Fuc(a1-2)Gal(b1-4)GlcNAc(b1-6)]GalNAc
# Method in brief: as §1
# [5] = biological target: Fuc(a1-2)Gal(b1-4)GlcNAc(b1-3)[Fuc(a1-3)[Gal(b1-4)]GlcNAc(b1-6)]Gal(b1-4)Glc
# Method in brief: as §1
# [6] = biological target: Fuc(a1-2)Gal(b1-4)GlcNAc(b1-6)GalNAc
# Method in brief: as §1
# [7] = biological target: Fuc(a1-2)Gal(b1-4)GlcNAc6S
# Method in brief: as §1
# [8] = biological target: Fuc(a1-2)Gal(b1-4)[Fuc(a1-3)]GlcNAc
# Method in brief: as §1
# [9] = biological target: Fuc(a1-2)Gal(b1-4)[Fuc(a1-3)]GlcNAc(b1-2)Man(a1-3)[Fuc(a1-2)Gal(b1-4)[Fuc(a1-3)]GlcNAc(b1-2)Man(a1-6)]Man(b1-4)GlcNAc(b1-4)[Fuc(a1-6)]GlcNAc
# Method in brief: as §1
# [10] = biological target: Fuc(a1-2)Gal(b1-4)[Fuc(a1-3)]GlcNAc(b1-2)[Fuc(a1-2)Gal(b1-4)[Fuc(a1-3)]GlcNAc(b1-4)]Man(a1-3)[Fuc(a1-2)Gal(b1-4)[Fuc(a1-3)]GlcNAc(b1-2)Man(a1-6)]Man(b1-4)GlcNAc(b1-4)GlcNAc
# Method in brief: as §1
# [11] = biological target: Fuc(a1-2)Gal(b1-4)[Fuc(a1-3)]GlcNAc(b1-3)Gal(b1-4)[Fuc(a1-3)]GlcNAc
# Method in brief: as §1
# [12] = biological target: Fuc(a1-2)Gal(b1-4)[Fuc(a1-3)]GlcNAc(b1-3)Gal(b1-4)[Fuc(a1-3)]GlcNAc(b1-3)Gal(b1-4)[Fuc(a1-3)]GlcNAc
# Method in brief: as §1
# [13] = biological target: Fuc(a1-2)Gal(b1-4)[Fuc(a1-3)]GlcNAc(b1-3)GalNAc
# Method in brief: as §1
# [14] = biological target: Fuc(a1-2)Gal(b1-4)[Fuc(a1-3)]GlcNAc(b1-3)[Neu5Ac(a2-6)Gal(b1-4)GlcNAc(b1-6)]Gal(b1-4)Glc
# Method in brief: as §1
# [15] = biological target: Fuc(a1-2)Gal3S(b1-4)GlcNAc
# Method in brief: as §1
# [16] = biological target: Fuc(a1-2)Gal6S(b1-3)GlcNAc
# Method in brief: as §1
# [17] = biological target: Fuc(a1-2)Gal6S(b1-3)GlcNAc6S
# Method in brief: as §1
# Fuc(a1-2)Gal6S(b1-4)Glc = biological target: Fuc(a1-2)Gal6S(b1-4)Glc
# Method in brief: as §1
# [18] = biological target: Fuc(a1-2)Gal6S(b1-4)Glc6S
# Method in brief: as §1
# Fuc(a1-2)[Gal(a1-3)]Gal = biological target: Fuc(a1-2)[Gal(a1-3)]Gal
# Method in brief: as §1
# [19] = biological target: Fuc(a1-2)[Gal(a1-3)]Gal(b1-3)GalNAc
# Method in brief: as §1
# [20] = biological target: Fuc(a1-2)[Gal(a1-3)]Gal(b1-3)GalNAc(b1-3)Gal(a1-4)Gal(b1-4)Glc
# Method in brief: as §1
# [21] = biological target: Fuc(a1-2)[Gal(a1-3)]Gal(b1-3)GlcNAc
# Method in brief: as §1
# [22] = biological target: Fuc(a1-2)[Gal(a1-3)]Gal(b1-3)GlcNAc(b1-2)Man(a1-3)[Fuc(a1-2)[Gal(a1-3)]Gal(b1-3)GlcNAc(b1-2)Man(a1-6)]Man(b1-4)GlcNAc(b1-4)GlcNAc
# Method in brief: as §1
# [23] = biological target: Fuc(a1-2)[Gal(a1-3)]Gal(b1-3)GlcNAc(b1-2)Man(a1-3)[Fuc(a1-2)[Gal(a1-3)]Gal(b1-3)GlcNAc(b1-2)Man(a1-6)]Man(b1-4)GlcNAc(b1-4)[Fuc(a1-6)]GlcNAc
# Method in brief: as §1
# [24] = biological target: Fuc(a1-2)[Gal(a1-3)]Gal(b1-3)GlcNAc(b1-3)GalNAc
# Method in brief: as §1
# [25] = biological target: Fuc(a1-2)[Gal(a1-3)]Gal(b1-3)GlcNAc(b1-6)GalNAc
# Method in brief: as §1
# [26] = biological target: Fuc(a1-2)[Gal(a1-3)]Gal(b1-4)Glc
# Method in brief: as §1
# [27] = biological target: Fuc(a1-2)[Gal(a1-3)]Gal(b1-4)GlcNAc
# Method in brief: as §1
# [28] = biological target: Fuc(a1-2)[Gal(a1-3)]Gal(b1-4)GlcNAc(b1-2)Man
# Method in brief: as §1
# [29] = biological target: Fuc(a1-2)[Gal(a1-3)]Gal(b1-4)GlcNAc(b1-2)Man(a1-3)[Fuc(a1-2)[Gal(a1-3)]Gal(b1-4)GlcNAc(b1-2)Man(a1-6)]Man(b1-4)GlcNAc(b1-4)GlcNAc
# Method in brief: as §1
# [30] = biological target: Fuc(a1-2)[Gal(a1-3)]Gal(b1-4)GlcNAc(b1-2)Man(a1-3)[Fuc(a1-2)[Gal(a1-3)]Gal(b1-4)GlcNAc(b1-2)Man(a1-6)]Man(b1-4)GlcNAc(b1-4)[Fuc(a1-6)]GlcNAc
# Method in brief: as §1
# [31] = biological target: Fuc(a1-2)[Gal(a1-3)]Gal(b1-4)GlcNAc(b1-3)GalNAc
# Method in brief: as §1
# [32] = biological target: Fuc(a1-2)[Gal(a1-3)]Gal(b1-4)GlcNAc(b1-6)GalNAc
# Method in brief: as §1
# [33] = biological target: Fuc(a1-2)[Gal(a1-3)]Gal(b1-4)[Fuc(a1-3)]Glc
# Method in brief: as §1
# [34] = biological target: Fuc(a1-2)[Gal(a1-3)]Gal(b1-4)[Fuc(a1-3)]GlcNAc
# Method in brief: as §1
# [35] = biological target: Fuc(a1-2)[Gal(a1-3)]Gal(b1-4)[Fuc(a1-3)]GlcNAc(b1-3)GalNAc
# Method in brief: as §1
# [36] = biological target: Fuc(a1-2)[Gal(a1-4)]Gal(b1-4)GlcNAc
# Method in brief: as §1
# [37] = biological target: Fuc(a1-2)[GalNAc(a1-3)]Gal
# Method in brief: as §1
# [38] = biological target: Fuc(a1-2)[GalNAc(a1-3)]Gal(b1-3)GalNAc(a1-3)[Fuc(a1-2)]Gal(b1-4)GlcNAc
# Method in brief: as §1
# [39] = biological target: Fuc(a1-2)[GalNAc(a1-3)]Gal(b1-3)GalNAc(b1-3)Gal(a1-4)Gal(b1-4)Glc
# Method in brief: as §1
# [40] = biological target: Fuc(a1-2)[GalNAc(a1-3)]Gal(b1-3)GlcNAc
# Method in brief: as §1
# [41] = biological target: Fuc(a1-2)[GalNAc(a1-3)]Gal(b1-3)GlcNAc(b1-2)Man(a1-3)[Fuc(a1-2)[GalNAc(a1-3)]Gal(b1-3)GlcNAc(b1-2)Man(a1-6)]Man(b1-4)GlcNAc(b1-4)GlcNAc
# Method in brief: as §1
# [42] = biological target: Fuc(a1-2)[GalNAc(a1-3)]Gal(b1-3)GlcNAc(b1-2)Man(a1-3)[Fuc(a1-2)[GalNAc(a1-3)]Gal(b1-3)GlcNAc(b1-2)Man(a1-6)]Man(b1-4)GlcNAc(b1-4)[Fuc(a1-6)]GlcNAc
# Method in brief: as §1
# [43] = biological target: Fuc(a1-2)[GalNAc(a1-3)]Gal(b1-3)GlcNAc(b1-3)GalNAc
# Method in brief: as §1
binder,measurement,setting,value
B1,glycan array binding signal (z-score),[1],-0.09
same,glycan array binding signal (z-score),[2],-0.143
same,glycan array binding signal (z-score),[3],-0.097
same,glycan array binding signal (z-score),[4],-0.118
same,glycan array binding signal (z-score),[5],-0.131
same,glycan array binding signal (z-score),[6],-0.079
same,glycan array binding signal (z-score),[7],-0.127
same,glycan array binding signal (z-score),[8],-0.135
same,glycan array binding signal (z-score),[9],-0.105
same,glycan array binding signal (z-score),[10],-0.09
same,glycan array binding signal (z-score),[11],-0.128
same,glycan array binding signal (z-score),[12],-0.113
same,glycan array binding signal (z-score),[13],-0.087
same,glycan array binding signal (z-score),[14],-0.144
same,glycan array binding signal (z-score),[15],-0.132
same,glycan array binding signal (z-score),[16],-0.13
same,glycan array binding signal (z-score),[17],-0.076
same,glycan array binding signal (z-score),Fuc(a1-2)Gal6S(b1-4)Glc,-0.132
same,glycan array binding signal (z-score),[18],-0.133
same,glycan array binding signal (z-score),Fuc(a1-2)[Gal(a1-3)]Gal,-0.136
same,glycan array binding signal (z-score),[19],-0.134
same,glycan array binding signal (z-score),[20],-0.127
same,glycan array binding signal (z-score),[21],-0.138
same,glycan array binding signal (z-score),[22],-0.06
same,glycan array binding signal (z-score),[23],0.28
same,glycan array binding signal (z-score),[24],-0.132
same,glycan array binding signal (z-score),[25],-0.13
same,glycan array binding signal (z-score),[26],-0.128
same,glycan array binding signal (z-score),[27],-0.144
same,glycan array binding signal (z-score),[28],-0.123
same,glycan array binding signal (z-score),[29],-0.113
same,glycan array binding signal (z-score),[30],0.077
same,glycan array binding signal (z-score),[31],-0.133
same,glycan array binding signal (z-score),[32],-0.129
same,glycan array binding signal (z-score),[33],-0.14
same,glycan array binding signal (z-score),[34],-0.129
same,glycan array binding signal (z-score),[35],-0.126
same,glycan array binding signal (z-score),[36],-0.14
same,glycan array binding signal (z-score),[37],-0.139
same,glycan array binding signal (z-score),[38],-0.142
same,glycan array binding signal (z-score),[39],-0.14
same,glycan array binding signal (z-score),[40],-0.131
same,glycan array binding signal (z-score),[41],-0.127
same,glycan array binding signal (z-score),[42],-0.002
same,glycan array binding signal (z-score),[43],-0.108
